# Assay results: the BET-seq Pho4 binding data (Le et al. 2018)
# The other results are listed elsewhere or left out. These are noisy estimates, calculated here from bound and input reads.
# Target: T1, Pho4 (S. cerevisiae) (UniProt P07270)
# T1 sequence: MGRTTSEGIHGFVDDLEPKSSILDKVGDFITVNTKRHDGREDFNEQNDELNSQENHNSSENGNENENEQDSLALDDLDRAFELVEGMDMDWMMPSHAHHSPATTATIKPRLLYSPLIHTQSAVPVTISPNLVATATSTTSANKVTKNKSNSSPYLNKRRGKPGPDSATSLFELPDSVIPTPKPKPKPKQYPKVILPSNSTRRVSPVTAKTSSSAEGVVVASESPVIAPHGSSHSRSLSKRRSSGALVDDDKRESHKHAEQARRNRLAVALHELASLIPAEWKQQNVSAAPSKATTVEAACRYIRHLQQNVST
# Assay: relative binding free energy (BET-seq); higher = weaker binding
# Details: reference: library average
row,Sequence,relative binding free energy
1,GATTTCACGTGAGAGG,0.49 kcal/mol
2,AGTTTCACGTGTTCGT,0.29 kcal/mol
3,TGGAGCACGTGTATGC,-0.1 kcal/mol
4,GAGTTCACGTGAGAGG,0.55 kcal/mol
5,TTAGGCACGTGGCATG,-0.23 kcal/mol
6,GTGGCCACGTGTTGGT,0.03 kcal/mol
7,TTTATCACGTGGATAT,0.07 kcal/mol
8,GGATGCACGTGAGTAT,0.03 kcal/mol
9,TGCTACACGTGGTATT,0.04 kcal/mol
10,TGAAACACGTGGGGAA,-0.05 kcal/mol
11,CGGGTCACGTGTAGAT,0.36 kcal/mol
12,ATGTGCACGTGGTATC,-0.11 kcal/mol
13,CTTTGCACGTGGTGGT,-0.04 kcal/mol
14,GGGTGCACGTGGCAGA,-0.16 kcal/mol
15,GATGGCACGTGGGCTC,-0.07 kcal/mol
16,TACTTCACGTGTTGAG,0.17 kcal/mol
17,TTAGGCACGTGCTGGA,-0.19 kcal/mol
18,GTTCGCACGTGCATGG,-0.02 kcal/mol
19,GGATACACGTGGTCTG,-0.13 kcal/mol

row,Sequence,relative binding free energy
1,GGTGACACGTGGGTGC,-0.13 kcal/mol
2,AAGTGCACGTGGTCGA,-0.09 kcal/mol
3,AGTTTCACGTGTCGTG,0.31 kcal/mol
4,TGGACCACGTGTGTGA,-0.03 kcal/mol
5,TTATACACGTGGTTGA,0.06 kcal/mol
6,CGGAGCACGTGCGTGG,-0.13 kcal/mol
7,GGGTTCACGTGGAGGT,0.33 kcal/mol
8,TGTTGCACGTGGCGGG,0 kcal/mol
9,GTGCTCACGTGGTAGT,0.2 kcal/mol
10,AATAACACGTGGGTAA,-0.17 kcal/mol
11,GGCCGCACGTGATGGT,0.19 kcal/mol
12,TGTTTCACGTGGGCTC,0.2 kcal/mol
13,TTGGTCACGTGTTCAA,0.12 kcal/mol
14,AGTTCCACGTGTGGGT,0 kcal/mol
15,TTGGCCACGTGGTTCT,-0.16 kcal/mol
16,AATAACACGTGTTTAG,0.04 kcal/mol
17,AGTGGCACGTGGGTCT,-0.27 kcal/mol
18,GCTGGCACGTGGGGGC,-0.31 kcal/mol
19,GTCATCACGTGCTGGG,0.17 kcal/mol

row,Sequence,relative binding free energy
1,GGTTGCACGTGGGGCA,-0.06 kcal/mol
2,TCGTGCACGTGGGGGG,-0.23 kcal/mol
3,GAAGGCACGTGTTGGT,-0.04 kcal/mol
4,TAGGTCACGTGCTCGG,0 kcal/mol
5,GTCGACACGTGTAGGT,0.02 kcal/mol
6,TGGGGCACGTGAAACG,0.06 kcal/mol
7,GTGTACACGTGACGTG,0.18 kcal/mol
8,TCGGGCACGTGTATTA,-0.09 kcal/mol
9,TGCCGCACGTGTGGGT,0.09 kcal/mol
10,TATTGCACGTGTCGGT,0.14 kcal/mol
11,GAGTACACGTGTTATT,0.15 kcal/mol
12,GGTAGCACGTGCGGAG,0.08 kcal/mol
13,AGGGTCACGTGCTTAT,0.07 kcal/mol
14,TAGTTCACGTGCCGAG,0.42 kcal/mol
15,GAATACACGTGTTGAG,0.18 kcal/mol
16,GGTAACACGTGTTTAG,0.18 kcal/mol
17,GGAAGCACGTGTAATT,-0.02 kcal/mol
18,CTTGACACGTGTATTG,0.03 kcal/mol
19,TGTAACACGTGTGTAG,0 kcal/mol
